Reference: PubChem BioAssay (NCATS)
This list was built around the results that the source calls inconclusive (neither active nor inactive); the mix of calls is not that of the screen. For part of these data: No potency is given beside an inconclusive call; the fits are too rough. Active and inactive are the calls of the source. Unless noted, the call rests on the fitted dose curve; in most records, active means well fitted curve in the direction sought with a large enough effect; inconclusive means small, poorly fitted or top-dose-only effect, or another doubt; inactive means no such curve, though single readings can be large; an effect the other way counts as inactive or inconclusive.

Key:
[1] = Primary qHTS for small molecule stabilizers of the endoplasmic reticulum resident proteome: Secreted ER Calcium Modulated Protein (SERCaMP) assay (AID 1508630); conditions: SH-SY5Y GLuc-SERCaMP (Gaussia luciferase released on ER calcium loss) secretion, thapsigargin, luminescence; series mostly up to 38.4 µM
Outline: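 The SH-SY5Y reporter protocol was run at 3 concentrations up to 38.3 uM (primary) or 11 concentrations (follow-up): 16 h compound, 100 nM thapsigargin for 4 h, then extracellular luciferase luminescence.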

[2] = A High-Content qHTS Against Drug Library for the Identification of Small Molecules that Inhibit DYT1 Early Onset Primary Dystonia-Associated Cell Pathology (AID 1645839; calls by dose curve)
Outline: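 Cells were seeded and left for 24 h, then dosed with compound alongside tetracycline induction of mutant EGFP-TorsinA. They were incubated for 48 h, fixed in 4% paraformaldehyde, permeabilized and imaged for mislocalization (%pathology) and cell count.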

[3] = Primary qHTS for inhibitors of nuclear receptor binding SET domain protein 2 (NSD2) in an isogenic RCH-ACV NSD2 p.E1099K mutant (9B) (AID 1645876); conditions: activity change, negative = viability loss: at 44.9 µM (top of the series) unless noted; further: nearly all actives have a fitted effect of over 70% in size
[4] = Primary qHTS for inhibitors of nuclear receptor binding SET domain protein 2 (NSD2) in an RCH-ACV wild type WT cells (2C) (AID 1645877); conditions: activity change, negative = cell killing: at 44.9 µM (top of the series) unless noted; further: nearly all actives have a fitted effect of over 70% in size
MKL-1 = assay: qHTS assay to identify novel small-molecules to repurpose for Merkel cell carcinoma treatment (AID 1296009); conditions: MCC and control cell lines, CellTiter-Glo viability, 72 h; series mostly up to 46 µM; further: nearly all actives have a fitted effect of over 60% in size
Outline: (§1)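 Dose-response viability screen; 72 hr exposure at 37 degree celsius; CellTiter-Glo added, 10 min room temperature, luminescence read; RLUs scaled between no-cell and DMSO wells.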

UISO = assay: as above; conditions: MCC and control cell lines, CellTiter-Glo viability, 72 h; series mostly up to 46 µM
Outline: as §1

[5] = qHTS of pediatric cancer cell lines to identify multiple opportunities for drug repurposing: Primary screen for A673 cells (AID 1347092); conditions: A673 Ewing sarcoma viability, CellTiter-Glo ATP luminescence, 48 h; activity change, negative = cytotoxic: at 46 µM (top of the series); further: nearly all actives have a fitted effect of over 45% in size
Outline: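 A673 cells (500-1,000 cells/well in growth media) were pre-incubated 5 h at 37 degrees C, then exposed to compounds for 48 h. Viability was read as CellTiter-Glo luminescence; concentration-response curves came directly from the primary screen.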

[6] = qHTS of pediatric cancer cell lines to identify multiple opportunities for drug repurposing: Primary screen for SK-N-MC cells (AID 1347093); conditions: SK-N-MC viability, CellTiter-Glo luminescence, 48 h; activity change, negative = cytotoxic: at 46 µM (top of the series)
Outline: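 Metabolically active cells were quantified by ATP-dependent luminescence (CellTiter-Glo, 15 min at room temperature) following 48 h treatment. Cells had been plated at 500-1,000 per well and settled for 5 h beforehand.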

[7] = qHTS of pediatric cancer cell lines to identify multiple opportunities for drug repurposing: Primary screen for NB-EBc1 cells (AID 1347095)
Outline: (§2)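 Plated cells (500-1,000 per well, growth media) were allowed to settle for 5 hours, treated with compound dilutions for 48 hours, then lysed with CellTiter-Glo for 15 min at room temperature before luminescence reading.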

[8] = qHTS of pediatric cancer cell lines to identify multiple opportunities for drug repurposing: Primary screen for Saos-2 cells (AID 1347097); conditions: Saos-2 viability, CellTiter-Glo ATP luminescence, 48 h; activity change, negative = cytotoxic: at 46 µM (top of the series); further: nearly all actives have a fitted effect of over 40% in size
Outline: as §2

[9] = qHTS of pediatric cancer cell lines to identify multiple opportunities for drug repurposing: Primary screen for SK-N-SH cells (AID 1347098); further: nearly all actives have a fitted effect of over 65% in size
Outline: (§3)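 Cells (500-1,000/well) rested 5 h, then received compounds for 48 h; metabolically active cells were measured by CellTiter-Glo luminescence. Final concentrations spanned up to 46 µM (MIPE, 11-point) or 0.59 nM-46 µM (NPC, 8-point) in primary screens, 11-point in follow-ups.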

[10] = qHTS of pediatric cancer cell lines to identify multiple opportunities for drug repurposing: Primary screen for BT-12 cells (AID 1347101); further: nearly all actives have a fitted effect of over 25% in size
Outline: as §3

[11] = qHTS of pediatric cancer cell lines to identify multiple opportunities for drug repurposing: Primary screen for OHS-50 cells (AID 1347103); conditions: OHS-50 osteosarcoma viability, CellTiter-Glo luminescence, 48 h; activity change, negative = cytotoxic: at 57.3 µM (top of the series); further: nearly all actives have a fitted effect of over 40% in size
Outline: as §3

SKOV3 = assay: Primary qHTS to identify gynecologic anti-cancer compounds using libraries of approved drugs and bioactive compounds (AID 1345084); conditions: Gynecologic cancer cell panel viability, ATPlite luminescence, 48 h; series mostly up to 57.5 µM; further: nearly all actives have a fitted effect of over 55% in size
Outline: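 Cells, 1,000 per well, plated 16 h, then exposed 48 h at 37 C to compounds. Viability by ATPlite luminescence after 15 min at room temperature.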

MKL-2 = assay: qHTS assay to identify novel small-molecules to repurpose for Merkel cell carcinoma treatment (AID 1296009); conditions: MCC and control cell lines, CellTiter-Glo viability, 72 h; series mostly up to 46 µM; further: nearly all actives have a fitted effect of over 60% in size
Outline: as §1

MCC-13 = assay: as above; conditions: MCC and control cell lines, CellTiter-Glo viability, 72 h; series mostly up to 46 µM
Outline: as §1

[12] = Drug repurposing screens with cells derived from glioblastoma tumor samples (AID 1345199); conditions: GBM patient neurospheres viability, ATP luminescence, 48 h; Potency: tumour line A unless noted; series mostly up to 46 µM; further: nearly all actives have a fitted effect of over 40% in size
Outline: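 Primary testing used CD133+ neurospheres from four GBM patients, seven concentrations, 48 h exposure and ATP-based viability; confirmation added three slower-growing patient lines.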

[13] = biological target: Cytochrome P450 2C9 (Homo sapiens) (UniProt P11712); assay: Cytochrome P450 family 2 subfamily C member 9 (CYP2C9) small molecule antagonists: luciferase biochemical (cell-free) qHTS assay (AID 1645842; active means well fitted curve in the direction sought with a large enough effect in the repeat runs; inconclusive means weak or mixed curves; inactive means no such curve, though single readings can be large; an effect the other way counts as inactive or inconclusive; further: nearly all actives have a fitted effect of over 55% in size)
Outline: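 P450-Glo CYP2C9 system: proluciferin substrate with enzyme in mix containing 0.4% BSA, 10 min at room temperature, then NADPH regeneration solution added and incubated 1 h at 37C. Detection reagent stopped reaction; luminescence read after 20 min as RLU.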

WaGa = assay: qHTS assay to identify novel small-molecules to repurpose for Merkel cell carcinoma treatment (AID 1296009); conditions: MCC and control cell lines, CellTiter-Glo viability, 72 h; series mostly up to 46 µM; further: nearly all actives have a fitted effect of over 60% in size
Outline: as §1

[14] = biological target: Cytochrome P450 2D6 (Homo sapiens) (UniProt P10635); assay: Cytochrome P450 family 2 subfamily D member 6 (CYP2D6) small molecule antagonists: luciferase biochemical (cell-free) qHTS assay (AID 1645840; active means well fitted curve in the direction sought with a large enough effect in the repeat runs; inconclusive means weak or mixed curves; inactive means no such curve, though single readings can be large; an effect the other way counts as inactive or inconclusive; further: nearly all actives have a fitted effect of over 55% in size)
Outline: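 P450-Glo CYP2D6 system: proluciferin substrate converted by enzyme to luciferin, read by luminescence proportional to activity. Enzyme-substrate mix with compound 10 min at room temperature, then NADPH regeneration 1 h before detection reagent.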
Potency means the concentration at half of the fitted maximal effect; tags describe the fitted curve by direction and shape.

Sequence of UniProt P10635 (P10635 whole entry, looked up): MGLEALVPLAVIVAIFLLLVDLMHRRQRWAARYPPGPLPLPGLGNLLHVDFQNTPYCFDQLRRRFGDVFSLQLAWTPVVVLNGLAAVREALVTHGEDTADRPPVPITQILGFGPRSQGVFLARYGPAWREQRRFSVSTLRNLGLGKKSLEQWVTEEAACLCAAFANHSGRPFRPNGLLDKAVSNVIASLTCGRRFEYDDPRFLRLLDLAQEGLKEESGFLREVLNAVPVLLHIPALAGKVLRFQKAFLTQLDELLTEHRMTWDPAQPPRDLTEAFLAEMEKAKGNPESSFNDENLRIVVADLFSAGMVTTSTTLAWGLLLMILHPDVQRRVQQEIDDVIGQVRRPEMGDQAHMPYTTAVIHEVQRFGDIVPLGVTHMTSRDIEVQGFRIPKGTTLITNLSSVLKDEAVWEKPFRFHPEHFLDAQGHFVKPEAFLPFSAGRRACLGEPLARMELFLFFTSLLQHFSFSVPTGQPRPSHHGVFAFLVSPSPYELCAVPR
Sequence of UniProt P11712 (P11712 whole entry, looked up): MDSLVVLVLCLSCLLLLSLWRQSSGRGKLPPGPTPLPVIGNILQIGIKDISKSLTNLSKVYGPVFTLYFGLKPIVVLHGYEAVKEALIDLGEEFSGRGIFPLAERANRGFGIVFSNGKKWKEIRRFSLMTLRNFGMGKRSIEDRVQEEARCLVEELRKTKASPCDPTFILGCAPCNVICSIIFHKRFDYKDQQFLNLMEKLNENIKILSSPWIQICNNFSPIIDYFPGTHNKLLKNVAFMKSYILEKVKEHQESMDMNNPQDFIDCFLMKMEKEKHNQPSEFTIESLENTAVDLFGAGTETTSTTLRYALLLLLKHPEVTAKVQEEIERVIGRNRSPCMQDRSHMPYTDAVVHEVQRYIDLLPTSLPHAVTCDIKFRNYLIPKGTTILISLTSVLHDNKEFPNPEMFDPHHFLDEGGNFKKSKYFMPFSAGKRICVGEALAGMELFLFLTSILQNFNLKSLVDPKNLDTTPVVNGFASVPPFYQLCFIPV

For `CCn1cc(C(=O)O)c(=O)c2cc(F)c(N3CCNCC3)cc21`, the Potency [1] was inconclusive [inhibitor, partial curve, poor fit], the Potency [2] was “inactive” and the Potency [3] was “inactive”. The Potency [4] was “inactive”, the Potency (MKL-1) was “inactive” and the Potency (UISO) was “inactive”.

In the case of `CCN(CC)CCOC(=O)C1(C2CCCCC2)CCCCC1`, the Potency [5] is reported as “inactive”, the Potency [6] is reported as inconclusive [cytotoxic, single point] and the Potency [7] is reported as inconclusive [cytotoxic, single point]. For the same compound, the Potency [8] was inconclusive [cytotoxic, single point], the Potency [9] was inconclusive [cytotoxic, partial curve, poor fit] and the Potency [10] was inconclusive [cytotoxic, partial curve, poor fit]. For the same compound, the Potency [11] was inconclusive [cytotoxic, single point], the Potency [1] was “inactive” and the Potency [4] was inconclusive [inhibitor, partial curve, poor fit]. For the same compound, the Potency (MKL-1) was “inactive” and the Potency (SKOV3) was “inactive”.

In the case of `CC1CCN(CCCC(=O)c2ccc(F)cc2)CC1`, the Potency [2] is reported as “inactive”, the Potency (MKL-1) is reported as “inactive” and the Potency (MKL-2) is reported as “inactive”. The Potency (SKOV3) was “inactive”.

With `CCCCNC(=O)NS(=O)(=O)c1ccc(C)cc1` the Potency [6] was inconclusive [cytotoxic, full curve, poor fit], the Potency (MCC-13) was “inactive” and the Potency [12] was “inactive”.

In the case of `O=c1cc[nH]c(=O)[nH]1`, the Potency [8] is reported as “inactive”, the Potency [10] is reported as “inactive” and the Potency [4] is reported as “inactive”. For the same compound, the Potency (MKL-1) was “inactive”.

For `CC1(c2ccccc2)OC(C(=O)O)=CC1=O` (stereo unspecified), the Potency [6] was “inactive”, the Potency [8] was “inactive” and the Potency [1] was inconclusive [inhibitor, partial curve, poor fit] and inactive. For the same compound, the Potency [3] was inconclusive [inhibitor, single point], the Potency [4] was inconclusive [inhibitor, single point] and the Potency (MCC-13) was “inactive”. For the same compound, the Potency [12] was inconclusive [inhibitor, partial curve].

For `CCC(CC)(CC(=O)Nc1cccc(/C=C/c2nc(C3CCC3)cs2)c1)C(=O)O`, the Potency [6] was inconclusive [cytotoxic, single point], the Potency [8] was “inactive” and the Potency [11] was inconclusive [cytotoxic, partial curve, poor fit]. The Potency [2] was inconclusive [inhibitor, single point], the Potency [13] was inconclusive [inhibitor, single point] and the Potency [3] was inconclusive [inhibitor, single point]. The Potency [4] was inconclusive [inhibitor, single point], the Potency (MKL-1) was “inactive” and the Potency (MKL-2) was inconclusive [inhibitor, single point]. The Potency (WaGa) was inconclusive [inhibitor, single point] and the Potency (SKOV3) was “inactive”.

With `CC(=O)N(c1onc(C)c1C)S(=O)(=O)c1ccc(N)cc1` the Potency [11] was “inactive”, the Potency [1] was inconclusive [inhibitor, partial curve, poor fit] and the Potency (MKL-1) was “inactive”. For the same compound, the Potency (MKL-2) was “inactive” and the Potency (SKOV3) was “inactive”.

In the case of `C=CC[N+]1([C@H]2C[C@H]3[C@@H]4CC[C@H]5C[C@H](OC(C)=O)[C@@H](N6CCCCC6)C[C@]5(C)[C@H]4CC[C@]3(C)[C@H]2OC(=O)CC)CCCCC1`, the Potency [11] is reported as “inactive”, the Potency [14] is reported as inconclusive [inhibitor, partial curve] and the Potency (MKL-1) is reported as “inactive”. For the same compound, the Potency (MKL-2) was inconclusive [inhibitor, partial curve, poor fit].

In the case of `c1ccc(-c2ccc(C(c3ccccc3)n3ccnc3)cc2)cc1` (stereo unspecified), the Potency [5] is reported as inconclusive [cytotoxic, single point], the Potency [6] is reported as inconclusive [cytotoxic, partial curve, poor fit] and the Potency [7] is reported as inconclusive [cytotoxic, single point]. The Potency [9] was inconclusive [cytotoxic, partial curve, poor fit], the Potency [10] was inconclusive [cytotoxic, single point] and the Potency [11] was inconclusive [cytotoxic, single point]. For the same compound, the Potency [1] was inconclusive [inhibitor, partial curve, poor fit], the Potency [2] was inconclusive [inhibitor, single point] and the Potency [3] was active: 21.1 µM. For the same compound, the Potency (MKL-1) was inconclusive [inhibitor, single point], the Potency (UISO) was inconclusive [inhibitor, single point] and the Potency (WaGa) was inconclusive [inhibitor, single point]. For the same compound, the Potency (SKOV3) was inconclusive [cytotoxic, single point] and the Potency [12] was active: 3.55 µM.

In the case of `Oc1ccc(CCNCCCCCCNCCc2ccccc2)cc1O`, the Potency [5] is reported as inconclusive [cytotoxic, single point], the Potency [9] is reported as inconclusive [cytotoxic, single point] and the Potency [10] is reported as inconclusive [cytotoxic, partial curve]. The Potency [11] was inconclusive [cytotoxic, single point], the Potency [1] was inconclusive [inhibitor, single point] and the Potency [2] was inconclusive [inhibitor, partial curve, poor fit]. The Potency [3] was inconclusive [inhibitor, single point], the Potency [4] was active: 16.8 µM and the Potency (MKL-1) was active: 2.11 µM. The Potency (UISO) was inconclusive [inhibitor, single point], the Potency (WaGa) was active: 10.6 µM and the Potency (SKOV3) was inconclusive [cytotoxic, single point].
